Data: the supplement of paper PMC10126150
Values marked as one replicate rest on one cluster of the flow cell; about a third of the high ones do not repeat.

Tested on: ATP
Experiment: switch fluorescence ratio, 500 uM ATP over buffer (Cy3 cluster intensity, sum of 5 cycles each) (fold (ratio)); higher = stronger signal-on switching upon ATP binding; sequences stand for … in TCGTCGGCAGCGTCAGATGTGTATAAGAGACAGTTTTTTTTTTTTTTTTTTTTTTTTT…TC
Details: aptamer strand: ATP DNA aptamer (quencher-CACCTGGGGGAGTATTGCGGAGGAAGG + anchor), 100 nM annealed; ATP concentration: 500 uM; one replicate
Method in brief: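 Cy3-labelled switching-strand clusters on a modified Illumina MiSeq flow-cell were annealed to 100 nM quencher-labelled ATP aptamer, imaged in selection buffer, then imaged after 15 min with 500 uM ATP at 22 °C. Five buffer/ATP cycles ran, with NaOH stripping and re-annealing between them. The fluorescence ratio is summed target-cycle over summed buffer-cycle Cy3 intensity per cluster, averaged per switch-domain sequence. Clusters outside 100-1000 RFU were excluded.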
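Note: ATP exposure 15 min at 22 °C before imaging.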

| Sequence | switch fluorescence ratio |
| --- | --- |
| TTCTGGCTTA | 1 |
| AAGAGAGGTC | 1.07 |
| GGATAATTGG | 1.01 |
| ATGAATATAG | 0.985 |
| ATGACTATG | 0.945 |
| GGAGTATAGT | 1.05 |
| GTGAATTTGG | 1.03 |
| GGGATTTCAA | 0.978 |
| TTAGTCAGAT | 1.02 |
| AACTTGGTCT | 0.992 |
| CATCCAGTGT | 1.33 |
| GTGTCAAGCC | 1.03 |
| TAGCGTATCC | 1.14 |
| TTCTTCTCCA | 0.99 |
| TTGGGGGTA | 0.993 |
| GTCGACGGCA | 1 |
| GTGGTCGCCG | 1.03 |
| CCCTAGAGCG | 1.11 |
| ATAATGGTGC | 1.01 |
| TCGTTAGGGT | 0.958 |
| TGTTGGGTTA | 0.991 |
| TCAGAACAAC | 1.11 |
| CGTCGGCGGC | 1.06 |
| ACCCTTGGCT | 0.996 |
| GCCAGAGGTA | 1.02 |
| CGTATCGTAG | 0.956 |

| Sequence | switch fluorescence ratio |
| --- | --- |
| CGCCCCAACA | 1.06 |
| CGTGTTAATA | 1 |
| TCGCGAATCC | 1.14 |
| GAGTGCTTCG | 1.04 |
| GCGTGGCCTA | 0.959 |
| TAAAACGGAC | 1.18 |
| ACTGGAAACC | 1.14 |
| TTTAGCCT | 1.12 |
| GTAGTCTATG | 0.945 |
| GCAGTTAGTA | 0.968 |
| AACGTGGTGG | 0.96 |
| AATGGCTTCT | 1 |
| GGTAAGTACT | 1.16 |
| GTGGAACATG | 0.968 |
| AGTTGGCACC | 1.02 |
| CTGTGGTCAC | 1.01 |
| ATGGTCGCAC | 0.997 |
| TGCGGACCGG | 0.957 |
| ATATTTGGCA | 0.983 |
| CTCGGTAGAC | 1.72 |
| AGGGCCGAGA | 1.01 |
| GAGTTTGCAT | 1.01 |
| GGTAACCCGT | 0.989 |
| GTTTTCACCC | 0.983 |
| CTAGGAATGG | 1.03 |
| TGCGGAGAGA | 1.02 |

| Sequence | switch fluorescence ratio |
| --- | --- |
| CTCCCACTT | 1.1 |
| GGGTCGCTG | 0.979 |
| TTTTGGCCGA | 0.961 |
| TGCCAGTATA | 0.982 |
| AGAAGAGGTC | 0.997 |
| TACTACAGAT | 1.02 |
| GATAGTGTTC | 1.02 |
| ACGGCGCAAA | 1.41 |
| AAGTGGTC | 1.01 |
| TCAAGGGTAA | 1.04 |
| TAGCATAAGT | 1.04 |
| ACCTATATGA | 1.04 |
| TGCTACCTCG | 1.04 |
| CAGTGTAGAC | 1.06 |
| AGAAAGAAGG | 1.03 |
| GTTGCGAGAG | 1.01 |
| TGATAGGTAA | 1.03 |
| CAGGCTACAG | 0.961 |
| TTCTAACGCC | 1.04 |
| CATATTTGGC | 1.03 |
| CGGTATTCGT | 0.96 |
| AGGAGGCTCA | 0.993 |
| GCATCAACAA | 1 |
| CCAGATAAGA | 0.962 |
| TCGGGCTTAC | 1.77 |
| TCTATCCGG | 0.996 |

| Sequence | switch fluorescence ratio |
| --- | --- |
| TCCGGAAGCG | 1.59 |
| CCCTTTGTC | 1.03 |
| GGTTATAGCA | 0.971 |
| GTGCTCAGGT | 1.06 |
| CCGTAGAAGG | 1.53 |
| CTGTTGTATT | 0.991 |
| AGTAGATGGT | 0.991 |
| TCCTGATTAA | 0.983 |
| GCTTTCGTCA | 0.993 |
| CGCTGGTCGA | 1.09 |
| GATCGATGCT | 0.992 |
| GCGTCGCTTA | 0.983 |
| ACCGGAGGTT | 1.01 |
| GCCGGGTACT | 0.999 |
| GTAAGAGTTA | 1 |
| CGGCTGAGGT | 0.952 |
| ACGCGGTTAT | 0.984 |
| TATGTTTGTA | 1 |
| TGCGGAA | 0.963 |
| GGCGCCTAGG | 1.01 |
| CATGGATTTT | 0.999 |
| TTCCGCCCGC | 1.73 |
| TTTCTTCGTC | 1.04 |
| ACTTTCATGT | 0.977 |
| TACGCAGCTA | 3.89 |
| AGATGAGGTA | 0.993 |

| Sequence | switch fluorescence ratio |
| --- | --- |
| ACGTTATATA | 1.22 |
| CGGACATATT | 1.03 |
| GGGCTTTAGC | 1.08 |
| GGTCTTGAAT | 0.981 |
| GCGCCGCAGT | 3.97 |
| CGCACTTTCT | 1.05 |
| AATTTTGAAA | 1.01 |
| GGAGGTCAGA | 0.996 |
| CATTCATGTA | 0.962 |
| GCCTTGTTAT | 1 |
| TAGACAGCGC | 1.08 |
| GACGCCTGAG | 1.03 |
| TATGGGAGTG | 0.995 |
| ATGCGCTAC | 5.17 |
| TAAAGAACCG | 1.02 |
| TGGTGCAATG | 1.12 |
| TAACGCCGT | 0.989 |
| TATAGGCAGA | 0.947 |
| CTGGGGTGAT | 1.04 |
| GATTGCGGAG | 0.955 |
| ACCAAGGGGG | 1.05 |
| GGCGGGAAGG | 0.969 |
| GAATCGGCCA | 0.982 |
| TTTGTTTCCG | 1.06 |
| GAAACTGTGG | 1.12 |
| CAGTTGATAA | 0.965 |

| Sequence | switch fluorescence ratio |
| --- | --- |
| AGTCGTTCCG | 0.977 |
| GCCCTCTTCC | 1.25 |
| TGAGTCAAGT | 1.03 |
| ATACACAGGG | 1.11 |
| CGGGATACA | 1.07 |
| ATTCCCTGAA | 1.05 |
| GGGCTATAAT | 1.02 |
| CACGCTGAG | 1.22 |
| TCCGAGAGGG | 1.02 |
| CCTTGTTCAG | 1.04 |
| TAGTGGTTGC | 1.1 |
| TTGGTTACTA | 1.03 |
| ACTTCATTGT | 0.999 |
| ACCCCCCTGG | 1.16 |
| AAAACGAGCC | 1.07 |
| CTTCTTCCGA | 3.87 |
| CGTCGAGATC | 0.963 |
| TGGTTCTTAC | 3.26 |
| ACCGTTGCGT | 1.01 |
| TGTCCAGTGC | 1.09 |
| CCATGACAAC | 1.02 |
| TGAGACTCAT | 0.972 |
| CTAAGCAACG | 1.06 |
| TAGGGAAGAA | 1.01 |
| AACTTTAATG | 1.01 |
| AACACCGGTA | 0.992 |

| Sequence | switch fluorescence ratio |
| --- | --- |
| TGCATTGATG | 1 |
| TCCCATATTT | 0.983 |
| AGAATGTTGT | 1 |
| TTTTGTG | 0.98 |
| TGAGGTGGCG | 0.945 |
| CACGTCGCGA | 0.985 |
| GGCGGAAGGT | 1.01 |
| GAAGTCGGA | 1.03 |
| TCGGTTTCCC | 1.03 |
| TCAGTGTGAA | 0.99 |
| GTGGGCGCCA | 1.03 |
| GTGGTGGGAA | 0.951 |
| AAGATAAGCG | 1.05 |
| ACACAACTGA | 1.14 |
| TAAATTTCTA | 1.01 |
| TGAGTTGTAG | 0.98 |
| GGCATCCATC | 0.987 |
| TAAAATCAGC | 0.961 |
| AAAGGCATTT | 1.34 |
| TCCGGGACTT | 1.02 |
| AAAGGCCAA | 0.99 |
| GGCCGACACA | 1.09 |
| CTATTCGGCT | 0.987 |
| GTGAGCGTCT | 1.03 |
| TGAGCGAACG | 1 |
| GGTAGTAG | 1.01 |

| Sequence | switch fluorescence ratio |
| --- | --- |
| CTTCGTCGAG | 0.996 |
| CAAGAGTCGG | 1 |
| AGCCCAGGCC | 1 |
| GGTATTAATC | 0.98 |
| CCGGGTCCGG | 0.978 |
| TGCAGCCAGG | 1.48 |
| TTTCCCGCTT | 1.19 |
| TAAGGCCATA | 1.01 |
| ATCACCTTAC | 2.44 |
| CTTCGCCGGC | 1.12 |
| TCCGGTCTTT | 0.984 |
| GTGATGTTAA | 0.985 |
| CGTAAGTAAG | 0.98 |
| GTCGTTGCAG | 1.01 |
| GAAAAAGGCT | 1.12 |
| GCATTGTAAG | 1.01 |
| CGAGGTCCAG | 0.965 |
| GGTTGCTTAG | 0.991 |
| GACCAAATG | 0.953 |
